# This is one part of the list.
# Target: T1, OsWOX13 (Oryza sativa, UniProt Q5QMM3 1-267)
# T1 sequence: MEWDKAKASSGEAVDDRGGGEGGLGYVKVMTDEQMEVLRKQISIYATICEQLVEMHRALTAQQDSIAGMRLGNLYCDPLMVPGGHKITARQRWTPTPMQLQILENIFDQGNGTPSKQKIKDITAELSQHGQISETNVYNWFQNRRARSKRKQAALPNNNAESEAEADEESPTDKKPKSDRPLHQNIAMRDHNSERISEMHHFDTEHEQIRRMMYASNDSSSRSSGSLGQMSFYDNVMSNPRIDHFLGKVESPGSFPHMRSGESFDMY
# Test: protein-binding microarray (RPBM); PBS, 2% BSA, 51.3 ng/ul salmon testes DNA, 50 uM zinc acetate, 200 nM TF, 25 C, 1 h; high values mean tight binding
# Details: protein: recombinant; tags: N-terminal polyhistidine and DsRed monomer fusion (pET32a); label: CyDye5-dUTP incorporated in the synthesized complementary strand; 3' TTTTT single-stranded linker to array surface; dsDNA, one strand shown
# Outline: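 An Axon 4000B scanner gave the binding signal as per-feature fluorescence intensity in arbitrary units. This followed washing of a custom Agilent array that had been incubated for 1 h at 25 °C with 200 nM protein in PBS, 2% BSA, salmon testes DNA and 50 µM zinc acetate. The proteins were transcription factors fused at the N-terminus to polyhistidine and DsRed, expressed in E. coli BL21-CodonPlus and purified on Ni–NTA.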
row,Sequence,binding signal
1,CTCCATTTAGCTATAAATAATTTAATATGAAGAAGGAAAACGGAGTCACCTAGTGCAG,3560 fluorescence intensity (a.u.)
2,GCTAATTTATCCTGCTCACACGTCGTATTGCCAACCCGACCGGAGTCACCTAGTGCAG,32700 fluorescence intensity (a.u.)
3,TTTTAATTTCAACTAAACTTCTAATTTTAACGTGAACTAACGGAGTCACCTAGTGCAG,9020 fluorescence intensity (a.u.)
4,ATGGACTAATTTGGCTAAAATAATTCGTCAAACTGTGCAACGGAGTCACCTAGTGCAG,9400 fluorescence intensity (a.u.)
5,CGGAAGATTGGAATGGAAATCGGAGAGAGCAGGGGCGGTGCGGAGTCACCTAGTGCAG,12800 fluorescence intensity (a.u.)
6,TATGTAATTATTATTTATTTTATTGTGATTTGATTCATCACGGAGTCACCTAGTGCAG,31400 fluorescence intensity (a.u.)
7,CTTTGATTTATTTCAAATCTGGTTTACCTCGTAGTTTGTCCGGAGTCACCTAGTGCAG,33500 fluorescence intensity (a.u.)
8,ATAAGTCGGTCTGACTGATTGCGTCATGTAACAAACATTCCGGAGTCACCTAGTGCAG,5840 fluorescence intensity (a.u.)
9,TAATAATAAAATAAATTACAAATTCCGTATGTAAACTGCGCGGAGTCACCTAGTGCAG,15200 fluorescence intensity (a.u.)
10,AACTTGACTAAATTGCACTTTAGTCCACCTTTTATTACCCCGGAGTCACCTAGTGCAG,17900 fluorescence intensity (a.u.)
11,TCCTAATTAAGCACAACAATTCCTCTCTAGCTAAGCCAATCGGAGTCACCTAGTGCAG,11400 fluorescence intensity (a.u.)
12,TTTATTGGTATTGATAGTTAGGAGGTGTAATATACCCAGTCGGAGTCACCTAGTGCAG,5530 fluorescence intensity (a.u.)
13,TAGTTATTGACAGGTCAATAGTACTGTTGGATCTCAATAACGGAGTCACCTAGTGCAG,21800 fluorescence intensity (a.u.)
14,TCAGTCTATCAATATAATAGTTAGCTCTTTATAGTTACTACGGAGTCACCTAGTGCAG,3320 fluorescence intensity (a.u.)
15,ATTCAATCTCATTTGCCTGATTACAGTTAGATACTGACATCGGAGTCACCTAGTGCAG,26400 fluorescence intensity (a.u.)
16,CTCCGGCTTGATTACTTCCTGATCTCCTCCTCCCCGACGCCGGAGTCACCTAGTGCAG,13300 fluorescence intensity (a.u.)
17,AGAAATTGCAGCATTTACTTGATTGGATCGCGACTGTGGACGGAGTCACCTAGTGCAG,40000 fluorescence intensity (a.u.)
18,CTTTAAATTTAACACTGAAAATTTAAATTTGGGCTAATAACGGAGTCACCTAGTGCAG,17100 fluorescence intensity (a.u.)
19,TATGAATTGCCAATAACCCATGGCCTCGTCGGCTCCCGTGCGGAGTCACCTAGTGCAG,3150 fluorescence intensity (a.u.)
20,GTTTAAAAGTGATTGGACCTAAAGTTTAGGAGGGGTTAATCGGAGTCACCTAGTGCAG,14400 fluorescence intensity (a.u.)
21,AAGATAATGAAATTATTGACAACAATGAATTTAGTGGTGCCGGAGTCACCTAGTGCAG,34700 fluorescence intensity (a.u.)
22,ACACACACACCCATTAATTTACATTTACAGAGTAAACATTCGGAGTCACCTAGTGCAG,5060 fluorescence intensity (a.u.)
23,TGATAAATTAATTACCAACAATAATTAATTCATCTCAAAACGGAGTCACCTAGTGCAG,42000 fluorescence intensity (a.u.)

# Source: PMC7819943, “Rice protein-binding microarrays: a tool to detect cis-acting elements near promoter regions in rice”
